In PubChem BioAssay AID1671194 (National Center for Advancing Translational Sciences (NCATS), 2021):
The campaign covered roughly 140,000 compounds. About 240 (0.17%) were called active. Inconclusive results, whose numbers are uncertain, are shown with a selection of clear calls. Calls follow the shape of the dose curve; as a rule, active = well fitted inhibition curve with a large enough effect; inconclusive = small, poorly fitted or top-dose-only effect; inactive = no such curve, though single readings can be large or run the other way. Potencies beside an inconclusive call are fits to weak or partial responses and may not hold up.

Assay: Primary qHTS assay for inhibitors of alpha-synuclein gene (SNCA) expression; also: nearly all actives have a fitted effect of over 45% in size;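 as to activity change, negative = inhibition: plate controls were DMSO cells for no effect and cell-free wells for full effect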
Details: HEK-293 SNCA-luciferase knock-in, luminescence, 24 h; activity change, negative = inhibition: at 57.2 µM (top of the series) unless noted
Potency is read from the fitted curve at half-maximal effect; tags tell the direction and shape of the fitted curve.

Potency, inconclusive:
CCCCCNC(=O)C1CCCN(c2nccc(Nc3ccccc3OC)n2)C1 (centres undefined) 2.51 µM [inhibitor, full curve], COc1ccc(NC(=O)c2c(NCc3ccc(C)o3)sc3c2CCC(C)C3)c(OC)c1 (centres undefined) 39.8 µM [inhibitor, single point], NCCO[C@H]1C[C@@H](O)C12CCN(Cc1ccc(OC(F)F)cc1)CC2 39.8 µM [inhibitor, single point], COc1ccc(C)cc1NC(=O)c1cc(S(=O)(=O)NC2CCCCCC2)ccc1F 35.5 µM [inhibitor, single point], COc1ccc(CC(=O)N2CCC3(CC2)C(=O)NCN3C(=O)C2CCCC2)cc1 39.8 µM [inhibitor, single point], CCOC(=O)c1cnc2cc(-c3ccc(Cl)cc3)nn2c1-c1ccccc1 22.4 µM [inhibitor, partial curve, poor fit], O=C(NCC1CCCN(Cc2cccc(-c3ccco3)c2)C1)c1cccs1 (centres undefined) 8.91 µM [inhibitor, partial curve], COc1cccc(C(=O)NCCSc2c(-c3ccc(F)cc3)[nH]c3ccccc23)c1OC 14.1 µM [inhibitor, partial curve, poor fit], COCC(=O)Nc1c(C(=O)OC)n(CCCc2ccccc2)c2ncc(NC(C)CCO)cc12 (centres undefined) 1.26 µM [inhibitor, full curve, poor fit], COc1cc2c(=O)n(CCC(=O)NCC3CCCO3)c(=O)n(CC(=O)Nc3ccc(C)cc3)c2cc1OC (centres undefined) 31.6 µM [inhibitor, single point], CN(C)CCNC(=O)c1ccc(-n2c(-c3ccccc3)cc3c2CCCC3)cc1 39.8 µM [inhibitor, single point], CCc1ccc(CNC(=O)c2ccc3c(c2)N=C(C)c2cc(C)ccc2S3)cc1 39.8 µM [inhibitor, partial curve, poor fit], O=C1NCCOCCN(C(=O)NCCc2ccccc2)[C@@H]2CCCC[C@H]12 10 µM [inhibitor, partial curve, poor fit], Cc1ccc(S(=O)(=O)N2CCCc3cc(NS(=O)(=O)c4ccc(F)c(C)c4)ccc32)cc1 39.8 µM [inhibitor, single point], Cc1nn2c(c1-c1ccccc1OCc1ccccc1)N(Cc1nccn1C)CCC2 5.01 µM [inhibitor, full curve], Cn1nccc1-c1cn(C)c(=O)n2cc(COc3ccc(Cl)cc3)nc12 10 µM [inhibitor, single point], CCN1CCCC12Cc1ccccc1CN(C(=O)c1c(C)noc1C)C2 (centres undefined) 2.24 µM [inhibitor, partial curve, poor fit], Cc1ccc(-c2ccc(=O)n(Cc3cc(C)ccc3C)n2)cc1 39.8 µM [inhibitor, single point], COc1cc(NC(=O)Cn2c(=O)oc3cc(S(=O)(=O)N4CCCCCC4)ccc32)cc(OC)c1 39.8 µM [inhibitor, single point], Cc1cc(C(F)(F)F)nn1CC(=O)N1CC[C@H](CO)[C@H](NC(=O)C2CC2)C1 25.1 µM [inhibitor, single point], Cc1oc2ccc(O)c(CN(C)Cc3ccccc3)c2c1C(=O)Nc1cccc(C(F)(F)F)c1 17.8 µM [inhibitor, partial curve, poor fit], O=C(CSc1nc(-c2ccccc2)no1)N1CCN(c2ccccc2F)CC1 2 µM [inhibitor, single point], Cc1ccccc1-c1cc(C(=O)NCc2cccnc2)c2c(c1)N(C)CCO2 31.6 µM [inhibitor, single point], Cc1ccc(CCNC(=O)C2CCN(c3nnc(-n4cccc4CNc4ccc(C)cc4)s3)CC2)cc1 39.8 µM [inhibitor, single point], Cc1onc(-c2ccccc2)c1C(=O)N[C@@H]1CCC[C@@H](C(=O)N2CCN(C)CC2)CC(=O)N(C)C1 39.8 µM [inhibitor, single point], CN(Cc1nccs1)C(=O)CC(c1ccccc1)c1cccc(Cl)c1 (centres undefined) 2 µM [inhibitor, partial curve, poor fit], CCOc1ccc(NC(=O)c2cc3n(n2)CC(c2ccc4c(c2)OCO4)OC3)cc1 (centres undefined) 39.8 µM [inhibitor, single point], CCC(Oc1ccc(F)cc1)C(=O)Nc1nc(-c2ccc(F)cc2)ns1 (centres undefined) 20 µM [inhibitor, single point], COc1ccccc1-c1cccc(C(=O)N2CCC[C@H]2C(=O)N(C)C)c1 44.7 µM [inhibitor, single point], COc1ccc2[nH]c3c(c2c1)CCNC31CCN(C(=O)c2c(C)noc2C)CC1 39.8 µM [inhibitor, single point], O=C(N[C@@H]1CN(Cc2cccc(F)c2)C[C@H]1CO)c1ccccc1 25.1 µM [inhibitor, partial curve, poor fit], Cc1cccc(Cn2c(SCc3ccc(C(=O)NC4CCCCC4)cc3)nc3cccnc32)c1 28.2 µM [inhibitor, single point], CNc1c(-c2noc(C)c2C(=O)NCCCOC)cnn1C 12.6 µM [inhibitor, single point], Nc1nc(N)c2nc(-c3cccc(O)c3)c(-c3cccc(O)c3)nc2n1 6.81 µM [inhibitor, full curve, poor fit], Cc1ccc(-c2noc([C@@H]3Cc4nc[nH]c4CN3C(=O)COCC(=O)O)n2)cc1 14.1 µM [inhibitor, partial curve, poor fit], Cn1cnc(S(=O)(=O)N2CCCCCCNC(=O)[C@@H]3CCC[C@@H]32)c1 8.91 µM [inhibitor, single point], NCCc1ccc(O)c(O)c1 5.41 µM [inhibitor, partial curve, poor fit]

Activity change, negative = inhibition, inconclusive:
Cc1ccc(-c2ccc3nnc(CNC(=O)Cc4cccc(F)c4)n3n2)cc1 -31.7% [inhibitor]

Activity change, negative = inhibition, inactive:
COc1ccc(CN2CCNc3cnc(Nc4ccccc4)cc3C2)cn1 -5.07% [at 87.6 µM], COc1ccc(C(=O)N2CCN(C(=O)c3nc4cccnc4n(C4CCCC4)c3=O)CC2)cc1 -0.829%, O=[N+]([O-])c1cccc(-c2noc([C@@H]3Cc4nc[nH]c4CN3Cc3ccc(F)cc3)n2)c1 -18.1% [at 87.6 µM], CCn1c(CC2CCN(S(=O)(=O)c3cccc(C)c3)CC2)nn(C)c1=O -5.45%, CCCN1CCN(C(=O)Cn2nc(C)c3sc(-c4ccccc4)nc3c2=O)CC1 0.464%, OCc1ccc(CN2CCC[C@H]2c2nc(-c3ccc(N4CCOCC4)nc3)no2)o1 -2.42% [at 87.6 µM], CCN1C(=O)C2CC3(CCN(Cc4cn[nH]c4-c4ccccc4)CC3)CN2C1=O (centres undefined) -2.21%, O=C(c1ccccc1F)N1CC(Oc2ccc(-c3nc(-c4ccccc4)no3)cc2)C1 4.9%, Cc1cccc(-c2noc(CCC(=O)N3CCC(C)(c4noc(C5CC5)n4)CC3)n2)c1 -2%, O=C(Cc1cccc(F)c1)N1CCC2(CC1)CN(c1ncccn1)CC2CO (centres undefined) -17.1%, Cc1cc(=O)n(CC(=O)Nc2c(C)cccc2C)c(N(C)Cc2ccccc2)n1 3.03%, Cc1cc2cc(-c3c(C)noc3C)nc(-c3ccsc3)c2o1 3.68% [at 87.6 µM], COCCOCc1nc(C2CCCCN2C(=O)c2ccc(OC)c(OC)c2)no1 (centres undefined) -26.1%, Cc1ccc(NC(=O)N2Cc3[nH]cnc3C[C@H]2c2nc(C(C)C)no2)cc1 20.6% [at 87.6 µM], COCCNC(=O)c1ccc2c(c1)N(C)C(CC(=O)N(C)CC(C)C)CO2 (centres undefined) -21.8%, O=C1CC2(CCN(C(=O)c3ccccc3)CC2)Oc2ccccc21 8.09% [at 87.6 µM], COc1ccccc1N1CCN(C(=O)CCNS(=O)(=O)c2ccc3c(c2)CCN3C(=O)C2CC2)CC1 9.08%, O=C(C1CCCC1)N1CC2(CCN(CC3CC3)C2)Cc2ccccc21 (centres undefined) -5.37%, O[C@@H]1C[C@@H](c2nc(-c3ccccc3)no2)N(Cc2ccccc2)C1 79.3% [at 87.6 µM], O=C(NC1CCCN(c2cc(-c3ccccc3)[nH]n2)C1)c1ccccc1 (centres undefined) 101%, CCCCNC(=O)c1cccc2c1CCN2C(=O)C1CC1 8.6%, O=C(NCc1ccccc1F)c1nc2sccn2c1-c1ccncc1 3.77%, COc1ccc(CC(=O)N[C@H]2C[C@@H](c3nc(-c4ccc(OC(F)(F)F)cc4)no3)N(C)C2)cc1 2.39%, Cc1ccc(NC(=O)Nc2ccccc2)c(=O)n1CC(=O)NC1CCCCC1 21.9%, Cc1nc(C)c(C(=O)N2CC(Oc3ccccc3-c3nc(C4CC4)no3)C2)s1 0.61%, O=C(c1cccnc1)N1C[C@@H]2OCC(=O)N(Cc3ccccn3)[C@@H]2C1 -22.7% [at 87.6 µM], Cn1c(C(=O)N2CCc3c(n(Cc4cccnc4)n(-c4ccccc4)c3=O)C2)cc2ccccc21 -4.38%, Cc1ccc(NC(=O)C2CCN(C(=O)c3ncn4c3COC(c3ccccc3)C4)CC2)cc1 (centres undefined) 70.9%, CN1CCC(Nc2ncc(C(C)(C)C(=O)O)c(N3CCOCC3)n2)CC1 -28.4%, CCC(=O)N1CCCc2cc(S(=O)(=O)Nc3ccc(C)c(C)c3)ccc21 -9.58%, COc1cc(C(=O)N2CCC(Cc3nc(-c4ccc(F)cc4)no3)CC2)cc(OC)c1OC -19.1%
